# Assay results reported in the supplement of paper PMC8728848.
# The other results are listed elsewhere or left out.
# Columns and labels:
# Assay in all cases: glycan array binding signal (z-score within array); higher = stronger binding
# Conditions in all cases: glycan notation: IUPAC condensed, linker removed
# [1] = biological target: Neu5Ac(a2-3)Gal(b1-3)GlcNAc
# Method in brief: (§1)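 The binding signal is a Z-score computed within each array. Data were drawn from 3228 arrays in the Consortium for Functional Glycomics database, restricted to those with a known protein sequence. Scores were averaged over arrays of the same protein sequence at different concentrations or buffers, and over linkers, and negative values can be taken as non-binding.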
# [2] = biological target: Neu5Ac(a2-3)Gal(b1-3)GlcNAc(b1-2)Man
# Method in brief: as §1
# [3] = biological target: Neu5Ac(a2-3)Gal(b1-3)GlcNAc(b1-2)Man(a1-3)[GlcNAc(b1-4)][Neu5Ac(a2-3)Gal(b1-3)GlcNAc(b1-2)Man(a1-6)]Man(b1-4)GlcNAc(b1-4)GlcNAc
# Method in brief: as §1
# [4] = biological target: Neu5Ac(a2-3)Gal(b1-3)GlcNAc(b1-2)Man(a1-3)[Neu5Ac(a2-3)Gal(b1-3)GlcNAc(b1-2)Man(a1-6)]Man(b1-4)GlcNAc(b1-4)GlcNAc
# Method in brief: as §1
# [5] = biological target: Neu5Ac(a2-3)Gal(b1-3)GlcNAc(b1-2)[Neu5Ac(a2-3)Gal(b1-3)GlcNAc(b1-4)]Man(a1-6)[Neu5Ac(a2-3)Gal(b1-3)GlcNAc(b1-2)Man(a1-3)]Man(b1-4)GlcNAc(b1-4)GlcNAc
# Method in brief: as §1
# [6] = biological target: Neu5Ac(a2-3)Gal(b1-3)GlcNAc(b1-3)Gal(b1-3)GlcNAc
# Method in brief: as §1
# [7] = biological target: Neu5Ac(a2-3)Gal(b1-3)GlcNAc(b1-3)Gal(b1-4)GlcNAc
# Method in brief: as §1
# [8] = biological target: Neu5Ac(a2-3)Gal(b1-3)GlcNAc(b1-3)GalNAc
# Method in brief: as §1
# [9] = biological target: Neu5Ac(a2-3)Gal(b1-3)GlcNAc(b1-6)GalNAc
# Method in brief: as §1
# [10] = biological target: Neu5Ac(a2-3)Gal(b1-3)GlcNAc6S
# Method in brief: as §1
# [11] = biological target: Neu5Ac(a2-3)Gal(b1-3)[Fuc(a1-4)]GlcNAc
# Method in brief: as §1
# [12] = biological target: Neu5Ac(a2-3)Gal(b1-3)[Fuc(a1-4)]GlcNAc(b1-3)Gal(b1-3)[Fuc(a1-4)]GlcNAc
# Method in brief: as §1
# [13] = biological target: Neu5Ac(a2-3)Gal(b1-3)[Fuc(a1-4)]GlcNAc(b1-3)Gal(b1-4)[Fuc(a1-3)]GlcNAc
# Method in brief: as §1
# [14] = biological target: Neu5Ac(a2-3)Gal(b1-3)[GlcNAc(b1-6)]GalNAc
# Method in brief: as §1
# [15] = biological target: Neu5Ac(a2-3)Gal(b1-3)[Neu5Ac(a2-6)]GalNAc
# Method in brief: as §1
# [16] = biological target: Neu5Ac(a2-3)Gal(b1-3)[Neu5Ac(a2-6)]GlcNAc(b1-3)[Fuc(a1-3)[Gal(b1-4)]GlcNAc(b1-6)]Gal(b1-4)Glc
# Method in brief: as §1
# [17] = biological target: Neu5Ac(a2-3)Gal(b1-3)]Neu5Ac(a2-3)Gal(b1-4)]GlcNAc
# Method in brief: as §1
# [18] = biological target: Neu5Ac(a2-3)Gal(b1-4)Glc
# Method in brief: as §1
# [19] = biological target: Neu5Ac(a2-3)Gal(b1-4)GlcNAc
# Method in brief: as §1
# [20] = biological target: Neu5Ac(a2-3)Gal(b1-4)GlcNAc(b1-2)Man
# Method in brief: as §1
# [21] = biological target: Neu5Ac(a2-3)Gal(b1-4)GlcNAc(b1-2)Man(a1-3)[GlcNAc(b1-4)][Neu5Ac(a2-3)Gal(b1-4)GlcNAc(b1-2)Man(a1-6)]Man(b1-4)GlcNAc(b1-4)GlcNAc
# Method in brief: as §1
# [22] = biological target: Neu5Ac(a2-3)Gal(b1-4)GlcNAc(b1-2)Man(a1-3)[Neu5Ac(a2-3)Gal(b1-4)GlcNAc(b1-2)Man(a1-6)]Man(b1-4)GlcNAc(b1-4)GlcNAc
# Method in brief: as §1
# [23] = biological target: Neu5Ac(a2-3)Gal(b1-4)GlcNAc(b1-2)Man(a1-3)[Neu5Ac(a2-3)Gal(b1-4)GlcNAc(b1-2)Man(a1-6)]Man(b1-4)GlcNAc(b1-4)[Fuc(a1-6)]GlcNAc
# Method in brief: as §1
# [24] = biological target: Neu5Ac(a2-3)Gal(b1-4)GlcNAc(b1-2)Man(a1-3)[Neu5Ac(a2-6)Gal(b1-4)GlcNAc(b1-2)Man(a1-6)]Man(b1-4)GlcNAc(b1-4)GlcNAc
# Method in brief: as §1
# [25] = biological target: Neu5Ac(a2-3)Gal(b1-4)GlcNAc(b1-2)[Neu5Ac(a2-3)Gal(b1-4)GlcNAc(b1-4)]Man(a1-3)[GlcNAc(b1-4)][Neu5Ac(a2-3)Gal(b1-4)GlcNAc(b1-2)[Neu5Ac(a2-3)Gal(b1-4)GlcNAc(b1-6)]Man(a1-6)]Man(b1-4)GlcNAc(b1-4)GlcNAc
# Method in brief: as §1
# [26] = biological target: Neu5Ac(a2-3)Gal(b1-4)GlcNAc(b1-2)[Neu5Ac(a2-3)Gal(b1-4)GlcNAc(b1-4)]Man(a1-3)[GlcNAc(b1-4)][Neu5Ac(a2-3)Gal(b1-4)GlcNAc(b1-4)Man(a1-6)]Man(b1-4)GlcNAc(b1-4)GlcNAc
# Method in brief: as §1
# [27] = biological target: Neu5Ac(a2-3)Gal(b1-4)GlcNAc(b1-2)[Neu5Ac(a2-3)Gal(b1-4)GlcNAc(b1-6)]Man(a1-6)[Neu5Ac(a2-3)Gal(b1-4)GlcNAc(b1-2)Man(a1-3)][GlcNAc(b1-4)]Man(b1-4)GlcNAc(b1-4)GlcNAc
# Method in brief: as §1
# [28] = biological target: Neu5Ac(a2-3)Gal(b1-4)GlcNAc(b1-3)Gal
# Method in brief: as §1
# [29] = biological target: Neu5Ac(a2-3)Gal(b1-4)GlcNAc(b1-3)Gal(b1-3)GlcNAc
# Method in brief: as §1
# [30] = biological target: Neu5Ac(a2-3)Gal(b1-4)GlcNAc(b1-3)Gal(b1-4)GlcNAc
# Method in brief: as §1
# [31] = biological target: Neu5Ac(a2-3)Gal(b1-4)GlcNAc(b1-3)Gal(b1-4)GlcNAc(b1-2)Man(a1-3)[Neu5Ac(a2-3)Gal(b1-4)GlcNAc(b1-3)Gal(b1-4)GlcNAc(b1-2)Man(a1-6)]Man(b1-4)GlcNAc(b1-4)GlcNAc
# Method in brief: as §1
# [32] = biological target: Neu5Ac(a2-3)Gal(b1-4)GlcNAc(b1-3)Gal(b1-4)GlcNAc(b1-3)Gal(b1-4)GlcNAc
# Method in brief: as §1
# [33] = biological target: Neu5Ac(a2-3)Gal(b1-4)GlcNAc(b1-3)Gal(b1-4)GlcNAc(b1-3)Gal(b1-4)GlcNAc(b1-2)Man(a1-3)[Neu5Ac(a2-3)Gal(b1-4)GlcNAc(b1-3)Gal(b1-4)GlcNAc(b1-3)Gal(b1-4)GlcNAc(b1-2)Man(a1-6)]GalNAc
# Method in brief: as §1
# [34] = biological target: Neu5Ac(a2-3)Gal(b1-4)GlcNAc(b1-3)Gal(b1-4)GlcNAc(b1-3)GalNAc
# Method in brief: as §1
# [35] = biological target: Neu5Ac(a2-3)Gal(b1-4)GlcNAc(b1-3)Gal(b1-4)GlcNAc(b1-3)[Neu5Ac(a2-3)Gal(b1-4)GlcNAc(b1-3)Gal(b1-4)GlcNAc(b1-6)]GalNAc
# Method in brief: as §1
# [36] = biological target: Neu5Ac(a2-3)Gal(b1-4)GlcNAc(b1-3)Gal(b1-4)GlcNAc(b1-6)[Gal(b1-3)]GalNAc
# Method in brief: as §1
# [37] = biological target: Neu5Ac(a2-3)Gal(b1-4)GlcNAc(b1-3)Gal(b1-4)[Fuc(a1-3)]GlcNAc
# Method in brief: as §1
# [38] = biological target: Neu5Ac(a2-3)Gal(b1-4)GlcNAc(b1-3)GalNAc
# Method in brief: as §1
binder,measurement,setting,value
DC-ASGPR S+GEE (Homo sapiens) (protein) MTRTYENFQYLENKVKVQGFKNGPLPLQSLLQRLRSGPCHLLLSLGLGLLLLVIICVVGFQNSKFQRDLVTLRTDFSNFTSNTVAEIQALTSQGSSLEETIASLKAEVEGFKQERQAVHSEMLLRVQQLVQDLKKLTCQVATINNNGEEASTEGTCCPVNWVEHQDSCYWFSHSGMSWAEAEKYCQLKNAHLVVINSREEQNFVQKYLGSAYTWMGLSDPEGAWKWVDGTDYATGFQNWKPGQPDDWQGHGLGGGEDCAHFHPDGRWNDDVCQRPYHWVCEAGLGQTSQESH,glycan array binding signal (z-score),[1],-0.319
same,glycan array binding signal (z-score),[2],-0.395
same,glycan array binding signal (z-score),[3],-0.29
same,glycan array binding signal (z-score),[4],-0.375
same,glycan array binding signal (z-score),[5],-0.229
same,glycan array binding signal (z-score),[6],-0.301
same,glycan array binding signal (z-score),[7],-0.349
same,glycan array binding signal (z-score),[8],-0.336
same,glycan array binding signal (z-score),[9],4.84
same,glycan array binding signal (z-score),[10],-0.306
same,glycan array binding signal (z-score),[11],-0.235
same,glycan array binding signal (z-score),[12],-0.216
same,glycan array binding signal (z-score),[13],-0.15
same,glycan array binding signal (z-score),[14],-1.57
same,glycan array binding signal (z-score),[15],-0.155
same,glycan array binding signal (z-score),[16],-0.331
same,glycan array binding signal (z-score),[17],-0.01
same,glycan array binding signal (z-score),[18],-0.348
same,glycan array binding signal (z-score),[19],-0.348
same,glycan array binding signal (z-score),[20],-0.093
same,glycan array binding signal (z-score),[21],-0.288
same,glycan array binding signal (z-score),[22],-0.317
same,glycan array binding signal (z-score),[23],-0.323
same,glycan array binding signal (z-score),[24],-0.297
same,glycan array binding signal (z-score),[25],-0.222
same,glycan array binding signal (z-score),[26],-0.253
same,glycan array binding signal (z-score),[27],-0.308
same,glycan array binding signal (z-score),[28],-0.325
same,glycan array binding signal (z-score),[29],-0.307
same,glycan array binding signal (z-score),[30],-0.415
same,glycan array binding signal (z-score),[31],-0.646
same,glycan array binding signal (z-score),[32],-0.301
same,glycan array binding signal (z-score),[33],-0.17
same,glycan array binding signal (z-score),[34],-0.28
same,glycan array binding signal (z-score),[35],-0.38
same,glycan array binding signal (z-score),[36],-0.394
same,glycan array binding signal (z-score),[37],-0.369
same,glycan array binding signal (z-score),[38],0.236
